Paper PMC4077589
These are yes or no findings as the source states them, for the method shown. Binding seen in cells or lysates may run through a third protein. Some binding calls cover weakened binding; strength is not graded here. Tags and fused reporters may be left off the sequences shown.

Tests used:
[1] = target: T1, full-length TMEM115–FLAG–HIS (in vitro translated) (human) (UniProt Q12893); assay: co-IP; in vitro translated products combined in cell lysis buffer, FLAG immunoprecipitation, beads washed with cell lysis buffer containing 500 mM NaCl
T1 sequence: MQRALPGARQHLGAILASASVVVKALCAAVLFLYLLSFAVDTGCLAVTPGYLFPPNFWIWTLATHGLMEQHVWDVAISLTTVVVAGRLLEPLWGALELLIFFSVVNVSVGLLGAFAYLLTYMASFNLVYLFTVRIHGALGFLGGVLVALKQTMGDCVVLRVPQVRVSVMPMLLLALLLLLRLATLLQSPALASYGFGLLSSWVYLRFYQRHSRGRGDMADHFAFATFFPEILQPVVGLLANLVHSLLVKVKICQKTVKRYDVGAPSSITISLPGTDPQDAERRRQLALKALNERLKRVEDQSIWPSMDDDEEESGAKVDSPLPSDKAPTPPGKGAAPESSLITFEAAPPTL

[2] = target: T1, full-length TMEM115–FLAG–HIS (in vitro translated) (human); assay: co-IP; in vitro translated products combined in cell lysis buffer, FLAG immunoprecipitation, beads washed with cell lysis buffer containing 150 mM NaCl

| Binder | binding [1] | binding [2] |
| --- | --- | --- |
| Myc-tagged COG1 (in vitro translated) (protein, UniProt Q8WTW3 1-980) MATAATSPALKRLDLRDPAALFETHGAEEIRGLERQVRAEIEHKKEELRQMVGERYRDLIEAADTIGQMRRCAVGLVDAVKATDQYCARLRQAGSAAPRPPRAQQPQQPSQEKFYSMAAQIKLLLEIPEKIWSSMEASQCLHATQLYLLCCHLHSLLQLDSSSSRYSPVLSRFPILIRQVAAASHFRSTILHESKMLLKCQGVSDQAVAEALCSIMLLEESSPRQALTDFLLARKATIQKLLNQPHHGAGIKAQICSLVELLATTLKQAHALFYTLPEGLLPDPALPCGLLFSTLETITGQHPAGKGTGVLQEEMKLCSWFKHLPASIVEFQPTLRTLAHPISQEYLKDTLQKWIHMCNEDIKNGITNLLMYVKSMKGLAGIRDAMWELLTNESTNHSWDVLCRRLLEKPLLFWEDMMQQLFLDRLQTLTKEGFDSISSSSKELLVSALQELESSTSNSPSNKHIHFEYNMSLFLWSESPNDLPSDAAWVSVANRGQFASSGLSMKAQAISPCVQNFCSALDSKLKVKLDDLLAYLPSDDSSLPKDVSPTQAKSSAFDRYADAGTVQEMLRTQSVACIKHIVDCIRAELQSIEEGVQGQQDALNSAKLHSVLFMARLCQSLGELCPHLKQCILGKSESSEKPAREFRALRKQGKVKTQEIIPTQAKWQEVKEVLLQQSVMGYQVWSSAVVKVLIHGFTQSLLLDDAGSVLATATSWDELEIQEEAESGSSVTSKIRLPAQPSWYVQSFLFSLCQEINRVGGHALPKVTLQEMLKSCMVQVVAAYEKLSEEKQIKKEGAFPVTQNRALQLLYDLRYLNIVLTAKGDEVKSGRSKPDSRIEKVTDHLEALIDPFDLDVFTPHLNSNLHRLVQRTSVLFGLVTGTENQLAPRSSTFNSQEPHNILPLASSQIRFGLLPLSMTSTRKAKSTRNIETKAQVVPPARSTAGDPTVPGSLFRQLVSEEDNTSAPSLFKLGWLSSMTK | no binding (condition: beads washed with 500 mM NaCl) | binds |
| Myc-tagged COG2 (in vitro translated) (protein, UniProt Q14746 1-738) MEKSRMNLPKGPDTLCFDKDEFMKEDFDVDHFVSDCRKRVQLEELRDDLELYYKLLKTAMVELINKDYADFVNLSTNLVGMDKALNQLSVPLGQLREEVLSLRSSVSEGIRAVDERMSKQEDIRKKKMCVLRLIQVIRSVEKIEKILNSQSSKETSALEASSPLLTGQILERIATEFNQLQFHAVQSKGMPLLDKVRPRIAGITAMLQQSLEGLLLEGLQTSDVDIIRHCLRTYATIDKTRDAEALVGQVLVKPYIDEVIIEQFVESHPNGLQVMYNKLLEFVPHHCRLLREVTGGAISSEKGNTVPGYDFLVNSVWPQIVQGLEEKLPSLFNPGNPDAFHEKYTISMDFVRRLERQCGSQASVKRLRAHPAYHSFNKKWNLPVYFQIRFREIAGSLEAALTDVLEDAPAESPYCLLASHRTWSSLRRCWSDEMFLPLLVHRLWRLTLQILARYSVFVNELSLRPISNESPKEIKKPLVTGSKEPSITQGNTEDQGSGPSETKPVVSISRTQLVYVVADLDKLQEQLPELLEIIKPKLEMIGFKNFSSISAALEDSQSSFSACVPSLSSKIIQDLSDSCFGFLKSALEVPRLYRRTNKEVPTTASSYVDSALKPLFQLQSGHKDKLKQAIIQQWLEGTLSESTHKYYETVSDVLNSVKKMEESLKRLKQARKTTPANPVGPSGGMSDDDKIRLQLALDVEYLGEQIQKLGLQASDIKSFSALAELVAAAKDQATAEQP | no binding (condition: beads washed with 500 mM NaCl) | binds |
| Myc-tagged COG4 (in vitro translated) (protein, UniProt Q9H9E3 1-785) MADLDSPPKLSGVQQPSEGVGGGRCSEISAELIRSLTELQELEAVYERLCGEEKVVERELDALLEQQNTIESKMVTLHRMGPNLQLIEGDAKQLAGMITFTCNLAENVSSKVRQLDLAKNRLYQAIQRADDILDLKFCMDGVQTALRSEDYEQAAAHTHRYLCLDKSVIELSRQGKEGSMIDANLKLLQEAEQRLKAIVAEKFAIATKEGDLPQVERFFKIFPLLGLHEEGLRKFSEYLCKQVASKAEENLLMVLGTDMSDRRAAVIFADTLTLLFEGIARIVETHQPIVETYYGPGRLYTLIKYLQVECDRQVEKVVDKFIKQRDYHQQFRHVQNNLMRNSTTEKIEPRELDPILTEVTLMNARSELYLRFLKKRISSDFEVGDSMASEEVKQEHQKCLDKLLNNCLLSCTMQELIGLYVTMEEYFMRETVNKAVALDTYEKGQLTSSMVDDVFYIVKKCIGRALSSSSIDCLCAMINLATTELESDFRDVLCNKLRMGFPATTFQDIQRGVTSAVNIMHSSLQQGKFDTKGIESTDEAKMSFLVTLNNVEVCSENISTLKKTLESDCTKLFSQGIGGEQAQAKFDSCLSDLAAVSNKFRDLLQEGLTELNSTAIKPQVQPWINSFFSVSHNIEEEEFNDYEANDPWVQQFILNLEQQMAEFKASLSPVIYDSLTGLMTSLVAVELEKVVLKSTFNRLGGLQFDKELRSLIAYLTTVTTWTIRDKFARLSQMATILNLERVTEILDYWGPNSGPLTWRLTPAEVRQVLALRIDFRSEDIKRLRL | binds | binds |
| Myc-tagged COG5 (in vitro translated) (protein, UniProt Q9UP83 1-860) MGWVGGRRRDSASPPGRSRSAADDINPAPANMEGGGGSVAVAGLGARGSGAAAATVRELLQDGCYSDFLNEDFDVKTYTSQSIHQAVIAEQLAKLAQGISQLDRELHLQVVARHEDLLAQATGIESLEGVLQMMQTRIGALQGAVDRIKAKIVEPYNKIVARTAQLARLQVACDLLRRIIRILNLSKRLQGQLQGGSREITKAAQSLNELDYLSQGIDLSGIEVIENDLLFIARARLEVENQAKRLLEQGLETQNPTQVGTALQVFYNLGTLKDTITSVVDGYCATLEENINSALDIKVLTQPSQSAVRGGPGRSTMPTPGNTAALRASFWTNMEKLMDHIYAVCGQVQHLQKVLAKKRDPVSHICFIEEIVKDGQPEIFYTFWNSVTQALSSQFHMATNSSMFLKQAFEGEYPKLLRLYNDLWKRLQQYSQHIQGNFNASGTTDLYVDLQHMEDDAQDIFIPKKPDYDPEKALKDSLQPYEAAYLSKSLSRLFDPINLVFPPGGRNPPSSDELDGIIKTIASELNVAAVDTNLTLAVSKNVAKTIQLYSVKSEQLLSTQGDASQVIGPLTEGQRRNVAVVNSLYKLHQSVTKVVSSQSSFPLAAEQTIISALKAIHALMENAVQPLLTSVGDAIEAIIITMHQEDFSGSLSSSGKPDVPCSLYMKELQGFIARVMSDYFKHFECLDFVFDNTEAIAQRAVELFIRHASLIRPLGEGGKMRLAADFAQMELAVGPFCRRVSDLGKSYRMLRSFRPLLFQASEHVASSPALGDVIPFSIIIQFLFTRAPAELKSPFQRAEWSHTRFSQWLDDHPSEKDRLLLIRGALEAYVQSVRSREGKEFAPVYPIMVQLLQKAMSALQ | no binding (condition: beads washed with 500 mM NaCl) | binds |
| Myc-tagged COG7 (in vitro translated) (protein, UniProt P83436 1-770) MDFSKFLADDFDVKEWINAAFRAGSKEAASGKADGHAATLVMKLQLFIQEVNHAVEETSHQALQNMPKVLRDVEALKQEASFLKEQMILVKEDIKKFEQDTSQSMQVLVEIDQVKSRMQLAAESLQEADKWSTLSADIEETFKTQDIAVISAKLTGMQNSLMMLVDTPDYSEKCVHLEALKNRLEALASPQIVAAFTSQAVDQSKVFVKVFTEIDRMPQLLAYYYKCHKVQLLAAWQELCQSDLSLDRQLTGLYDALLGAWHTQIQWATQVFQKPHEVVMVLLIQTLGALMPSLPSCLSNGVERAGPEQELTRLLEFYDATAHFAKGLEMALLPHLHEHNLVKVTELVDAVYDPYKPYQLKYGDMEESNLLIQMSAVPLEHGEVIDCVQELSHSVNKLFGLASAAVDRCVRFTNGLGTCGLLSALKSLFAKYVSDFTSTLQSIRKKCKLDHIPPNSLFQEDWTAFQNSIRIIATCGELLRHCGDFEQQLANRILSTAGKYLSDSCSPRSLAGFQESILTDKKNSAKNPWQEYNYLQKDNPAEYASLMEILYTLKEKGSSNHNLLAAPRAALTRLNQQAHQLAFDSVFLRIKQQLLLISKMDSWNTAGIGETLTDELPAFSLTPLEYISNIGQYIMSLPLNLEPFVTQEDSALELALHAGKLPFPPEQGDELPELDNMADNWLGSIARATMQTYCDAILQIPELSPHSAKQLATDIDYLINVMDALGLQPSRTLQHIVTLLKTRPEDYRQVSKGLPRRLATTVATMRSVNY | no binding (condition: beads washed with 500 mM NaCl) | binds |
| Myc-tagged COG8 (in vitro translated) (protein, UniProt Q96MW5 1-612) MATAATIPSVATATAAALGEVEDEGLLASLFRDRFPEAQWRERPDVGRYLRELSGSGLERLRREPERLAEERAQLLQQTRDLAFANYKTFIRGAECTERIHRLFGDVEASLGRLLDRLPSFQQSCRNFVKEAEEISSNRRMNSLTLNRHTEILEILEIPQLMDTCVRNSYYEEALELAAYVRRLERKYSSIPVIQGIVNEVRQSMQLMLSQLIQQLRTNIQLPACLRVIGYLRRMDVFTEAELRVKFLQARDAWLRSILTAIPNDDPYFHITKTIEASRVHLFDIITQYRAIFSDEDPLLPPAMGEHTVNESAIFHGWVLQKVSQFLQVLETDLYRGIGGHLDSLLGQCMYFGLSFSRVGADFRGQLAPVFQRVAISTFQKAIQETVEKFQEEMNSYMLISAPAILGTSNMPAAVPATQPGTLQPPMVLLDFPPLACFLNNILVAFNDLRLCCPVALAQDVTGALEDALAKVTKIILAFHRAEEAAFSSGEQELFVQFCTVFLEDLVPYLNRCLQVLFPPAQIAQTLGIPPTQLSKYGNLGHVNIGAIQEPLAFILPKRETLFTLDDQALGPELTAPAPEPPAEEPRLEPAGPACPEGGRAETQAEPPSVGP | no binding (condition: beads washed with 500 mM NaCl) | binds |
